The other results are listed elsewhere or left out. Many values rest on one well or one pass, so single values are uncertain.
Legend:
Test in all cases: proliferation Z-score within cell line (SRB, relative to all inhibitors screened on that line); triple-negative breast cancer lines and a kinase inhibitor library; SRB is the sulforhodamine B protein stain; higher = less growth inhibition (more resistant)
Conditions in all cases: concentration: 1 µM; 4 days
Bt20 = system: Bt20
Bt549 = system: Bt549
HCC1143 = system: HCC1143
HCC1806 = system: HCC1806
HCC1937 = system: HCC1937
HCC38 = system: HCC38
HCC70 = system: HCC70
Hs578T = system: Hs578T
MDA-MB-231 = system: MDA-MB-231
MDA-MB-435s = system: MDA-MB-435s
MDA-MB-436 = system: MDA-MB-436
MDA-MB-453 = system: MDA-MB-453
MDA-MB-468 = system: MDA-MB-468
SKBR7 = system: SKBR7
SUM1315MO2 = system: SUM1315MO2
SUM149PT = system: SUM149PT
SUM159PT = system: SUM159PT
SUM185PE = system: SUM185PE
SUM229PE = system: SUM229PE
SUM52PE = system: SUM52PE
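Also: Single-dose primary screen of a 378-member kinase inhibitor library in 96-well plates, with growth read as absorbance of protein-bound SRB dye after TCA fixation.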

With `C[C@@H](N)[C@H]1CC[C@H](C(=O)Nc2ccncc2)CC1` the “proliferation Z-score within cell line” value (Bt20) was 0.973, the “proliferation Z-score within cell line” value (Bt549) was 0.618 and the “proliferation Z-score within cell line” value (HCC1143) was 0.675. The “proliferation Z-score within cell line” value (HCC1806) was 0.549, the “proliferation Z-score within cell line” value (HCC1937) was 0.86 and the “proliferation Z-score within cell line” value (HCC38) was 0.503. For the same compound, the “proliferation Z-score within cell line” value (HCC70) was 0.786, the “proliferation Z-score within cell line” value (Hs578T) was 0.619 and the “proliferation Z-score within cell line” value (MDA-MB-231) was 0.913. The “proliferation Z-score within cell line” value (MDA-MB-435s) was 0.997, the “proliferation Z-score within cell line” value (MDA-MB-436) was 0.928 and the “proliferation Z-score within cell line” value (MDA-MB-453) was 0.911. For the same compound, the “proliferation Z-score within cell line” value (MDA-MB-468) was 0.913, the “proliferation Z-score within cell line” value (SKBR7) was 0.913 and the “proliferation Z-score within cell line” value (SUM1315MO2) was 1.22. The “proliferation Z-score within cell line” value (SUM149PT) was 0.742, the “proliferation Z-score within cell line” value (SUM159PT) was 0.357 and the “proliferation Z-score within cell line” value (SUM185PE) was 1.26. The “proliferation Z-score within cell line” value (SUM229PE) was 1.28 and the “proliferation Z-score within cell line” value (SUM52PE) was 1.56.
For `CC(=O)c1c(C)c2cnc(Nc3ccc(N4CCNCC4)cn3)nc2n(C2CCCC2)c1=O`, the “proliferation Z-score within cell line” value (Bt20) was -0.0671, the “proliferation Z-score within cell line” value (Bt549) was 0.229 and the “proliferation Z-score within cell line” value (HCC1143) was -1.85. The “proliferation Z-score within cell line” value (HCC1806) was -1.17, the “proliferation Z-score within cell line” value (HCC1937) was -0.447 and the “proliferation Z-score within cell line” value (HCC38) was 0.315. For the same compound, the “proliferation Z-score within cell line” value (HCC70) was -0.366, the “proliferation Z-score within cell line” value (Hs578T) was -0.884 and the “proliferation Z-score within cell line” value (MDA-MB-231) was -1.54. The “proliferation Z-score within cell line” value (MDA-MB-435s) was -0.388, the “proliferation Z-score within cell line” value (MDA-MB-436) was -0.56 and the “proliferation Z-score within cell line” value (MDA-MB-453) was -1.48. For the same compound, the “proliferation Z-score within cell line” value (MDA-MB-468) was 0.746, the “proliferation Z-score within cell line” value (SKBR7) was -0.764 and the “proliferation Z-score within cell line” value (SUM1315MO2) was -0.181. For the same compound, the “proliferation Z-score within cell line” value (SUM149PT) was -1.24, the “proliferation Z-score within cell line” value (SUM159PT) was -0.698 and the “proliferation Z-score within cell line” value (SUM185PE) was -0.263. The “proliferation Z-score within cell line” value (SUM229PE) was -0.231 and the “proliferation Z-score within cell line” value (SUM52PE) was -0.305.
In the case of `Cc1c(CN2CCN(C(=O)[C@H](C)O)CC2)sc2c(N3CCOCC3)nc(-c3cnc(N)nc3)nc12`, the “proliferation Z-score within cell line” value (Bt20) is reported as -1.78, the “proliferation Z-score within cell line” value (Bt549) is reported as -1.84 and the “proliferation Z-score within cell line” value (HCC1143) is reported as -1.25. The “proliferation Z-score within cell line” value (HCC1806) was -1.16, the “proliferation Z-score within cell line” value (HCC1937) was -1.8 and the “proliferation Z-score within cell line” value (HCC38) was -0.778. The “proliferation Z-score within cell line” value (HCC70) was -1.76, the “proliferation Z-score within cell line” value (Hs578T) was -1.98 and the “proliferation Z-score within cell line” value (MDA-MB-231) was -1.19. For the same compound, the “proliferation Z-score within cell line” value (MDA-MB-435s) was -1.39, the “proliferation Z-score within cell line” value (MDA-MB-436) was -1.62 and the “proliferation Z-score within cell line” value (MDA-MB-453) was -1.56. The “proliferation Z-score within cell line” value (MDA-MB-468) was -1.13, the “proliferation Z-score within cell line” value (SKBR7) was -1.66 and the “proliferation Z-score within cell line” value (SUM1315MO2) was -1.39. For the same compound, the “proliferation Z-score within cell line” value (SUM149PT) was -0.66, the “proliferation Z-score within cell line” value (SUM159PT) was -1.72 and the “proliferation Z-score within cell line” value (SUM185PE) was -1.6. The “proliferation Z-score within cell line” value (SUM229PE) was -1.5 and the “proliferation Z-score within cell line” value (SUM52PE) was -1.21.
`CC(C)(C)c1cnc(CSc2cnc(NC(=O)C3CCNCC3)s2)o1` was tested, and the “proliferation Z-score within cell line” value (Bt20) was -3.18, the “proliferation Z-score within cell line” value (Bt549) was -3.92 and the “proliferation Z-score within cell line” value (HCC1143) was 0.525. The “proliferation Z-score within cell line” value (HCC1806) was -2.86, the “proliferation Z-score within cell line” value (HCC1937) was 0.219 and the “proliferation Z-score within cell line” value (HCC38) was -4.24. The “proliferation Z-score within cell line” value (HCC70) was 0.735, the “proliferation Z-score within cell line” value (Hs578T) was -3.85 and the “proliferation Z-score within cell line” value (MDA-MB-231) was -2.38. For the same compound, the “proliferation Z-score within cell line” value (MDA-MB-435s) was -2.67, the “proliferation Z-score within cell line” value (MDA-MB-436) was 0.934 and the “proliferation Z-score within cell line” value (MDA-MB-453) was -2.27. The “proliferation Z-score within cell line” value (MDA-MB-468) was -2.01, the “proliferation Z-score within cell line” value (SKBR7) was -2.99 and the “proliferation Z-score within cell line” value (SUM1315MO2) was -3.01. For the same compound, the “proliferation Z-score within cell line” value (SUM149PT) was -3.15, the “proliferation Z-score within cell line” value (SUM159PT) was 0.504 and the “proliferation Z-score within cell line” value (SUM185PE) was -1.63. The “proliferation Z-score within cell line” value (SUM229PE) was -2.99 and the “proliferation Z-score within cell line” value (SUM52PE) was -1.29.
With `C=CC(=O)Nc1cccc(Nc2nc(Nc3ccc(NC4CN(CCF)C4)cc3OC)ncc2C(F)(F)F)c1` the “proliferation Z-score within cell line” value (Bt20) was 0.0799, the “proliferation Z-score within cell line” value (Bt549) was 0.418 and the “proliferation Z-score within cell line” value (HCC1143) was -0.598. The “proliferation Z-score within cell line” value (HCC1806) was -1.28, the “proliferation Z-score within cell line” value (HCC1937) was -0.482 and the “proliferation Z-score within cell line” value (HCC38) was 0.605. For the same compound, the “proliferation Z-score within cell line” value (HCC70) was 0.594, the “proliferation Z-score within cell line” value (Hs578T) was 0.511 and the “proliferation Z-score within cell line” value (MDA-MB-231) was 0.255. For the same compound, the “proliferation Z-score within cell line” value (MDA-MB-435s) was 0.364, the “proliferation Z-score within cell line” value (MDA-MB-436) was 0.000711 and the “proliferation Z-score within cell line” value (MDA-MB-453) was -0.84. The “proliferation Z-score within cell line” value (MDA-MB-468) was -0.887, the “proliferation Z-score within cell line” value (SKBR7) was 0.625 and the “proliferation Z-score within cell line” value (SUM1315MO2) was -0.319. The “proliferation Z-score within cell line” value (SUM149PT) was -0.39, the “proliferation Z-score within cell line” value (SUM159PT) was 0.46 and the “proliferation Z-score within cell line” value (SUM185PE) was 0.207. For the same compound, the “proliferation Z-score within cell line” value (SUM229PE) was -0.463 and the “proliferation Z-score within cell line” value (SUM52PE) was 0.293.
In the case of `O=C(c1cccc(Cl)c1F)N1CCN(Cc2cccc(Nc3nccs3)n2)CC1`, the “proliferation Z-score within cell line” value (Bt20) is reported as -2.42, the “proliferation Z-score within cell line” value (Bt549) is reported as -0.913 and the “proliferation Z-score within cell line” value (HCC1143) is reported as -1.32. For the same compound, the “proliferation Z-score within cell line” value (HCC1806) was -0.412, the “proliferation Z-score within cell line” value (HCC1937) was 0.0941 and the “proliferation Z-score within cell line” value (HCC38) was -0.924. The “proliferation Z-score within cell line” value (HCC70) was -1.9, the “proliferation Z-score within cell line” value (Hs578T) was -1.61 and the “proliferation Z-score within cell line” value (MDA-MB-231) was -0.724. For the same compound, the “proliferation Z-score within cell line” value (MDA-MB-435s) was -1.05, the “proliferation Z-score within cell line” value (MDA-MB-436) was -0.823 and the “proliferation Z-score within cell line” value (MDA-MB-453) was -1.71. The “proliferation Z-score within cell line” value (MDA-MB-468) was -2.1, the “proliferation Z-score within cell line” value (SKBR7) was -1.57 and the “proliferation Z-score within cell line” value (SUM1315MO2) was -1.49. The “proliferation Z-score within cell line” value (SUM149PT) was -0.536, the “proliferation Z-score within cell line” value (SUM159PT) was -1.26 and the “proliferation Z-score within cell line” value (SUM185PE) was 0.154. For the same compound, the “proliferation Z-score within cell line” value (SUM229PE) was -0.306 and the “proliferation Z-score within cell line” value (SUM52PE) was -1.12.

Reference: the supplement of paper PMC6746778
